{"source": "PubChem BioAssay AID411", "about": "(National Center for Advancing Translational Sciences (NCATS), 2006)", "note": "About 1,600 (2.2%) of roughly 72,000 compounds were called active. The inconclusive results got no clear call from the source; some entries with a clear call stand among them for comparison. Calls follow the shape of the dose curve; as a rule, active = well fitted inhibition curve with a large enough effect; inconclusive = small, poorly fitted or top-dose-only effect; inactive = flat fitted curve, though single readings scatter. Potencies of inconclusive entries are left out as doubtful fits. % is scaled to controls: 0 for no effect and ±100 for the full control effect; potency is read from the fitted curve at half-maximal effect; tags tell the direction and shape of the fitted curve."}
{"biological_target": "Luciferin 4-monooxygenase (Photinus pyralis) (UniProt P08659)", "sequence (P08659 whole entry, looked up)": "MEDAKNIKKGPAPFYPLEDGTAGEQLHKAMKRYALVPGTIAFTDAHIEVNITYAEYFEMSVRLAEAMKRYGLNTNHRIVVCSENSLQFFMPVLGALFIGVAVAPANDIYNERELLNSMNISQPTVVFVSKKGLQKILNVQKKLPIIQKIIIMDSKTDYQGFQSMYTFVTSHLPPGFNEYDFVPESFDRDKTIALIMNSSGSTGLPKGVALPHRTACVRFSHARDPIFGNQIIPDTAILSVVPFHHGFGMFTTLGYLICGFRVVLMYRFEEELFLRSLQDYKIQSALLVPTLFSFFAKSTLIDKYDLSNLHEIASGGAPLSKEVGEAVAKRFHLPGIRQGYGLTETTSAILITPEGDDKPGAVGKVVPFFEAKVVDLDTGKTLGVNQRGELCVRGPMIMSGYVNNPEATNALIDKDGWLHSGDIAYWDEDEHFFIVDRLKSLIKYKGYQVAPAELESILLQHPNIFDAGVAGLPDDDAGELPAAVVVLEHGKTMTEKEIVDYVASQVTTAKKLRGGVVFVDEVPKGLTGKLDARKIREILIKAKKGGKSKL", "test": "qHTS Assay for Inhibitors of Firefly Luciferase; also: nearly all actives have a fitted effect of over 40% in size", "conditions": "purified firefly luciferase, luminescence, 8 min; series mostly up to 57.1 µM; activity change, negative = inhibition: at the top concentration", "procedure,_shortened": "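Compounds were tested as concentration series (qHTS) against purified P. pyralis luciferase with luciferin and 10 uM ATP in 50 mM imidazole pH 7.2, 50 mM KCl, 7 mM MgCl2, 0.01% Tween 20, 0.05% BSA. Luminescence was read after 8 min at ambient temperature.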"}
{"smiles": "Cc1ccc(-c2cc(-c3ccc4c(c3)OCO4)c(C#N)c(N)n2)o1", "activity change, negative = inhibition": "inactive: -9.61%"}
{"smiles": "CCc1nc(SCCO)c2oc3ccccc3c2n1", "activity change, negative = inhibition": "inactive: -2.68%"}
{"smiles": "O=c1[nH]c2ccccc2c2nc3ccccn3c12", "Potency": "inconclusive [inhibitor, partial curve]"}
{"smiles": "O=C(CCCn1c(=S)[nH]c2cc3c(cc2c1=O)OCO3)N1CCN(c2ccccc2F)CC1", "activity change, negative = inhibition": "inactive: 1.6%"}
{"smiles": "O=C(c1cc(-c2cccs2)on1)N1CCOCC1", "Potency": "inconclusive [inhibitor, single point]"}
{"smiles": "COc1ccc(-c2cc(C(=O)NCc3cccnc3)no2)cc1", "Potency": "inconclusive [inhibitor, partial curve]"}
{"smiles": "CC(=O)c1cc(F)c(N2CCCC2)cc1C", "activity change, negative = inhibition": "inactive: -0.244%"}
{"smiles": "Cc1cc2c(nc1C)CCCCN2C[C@H](O)CN1CCCc2nc(-c3ccc(Br)cc3)ccc21", "activity change, negative = inhibition": "inactive: -6.99% [at 11.4 µM]"}
{"smiles": "COc1ccc(CNc2cc(-c3ccoc3)ncn2)c(OC)c1", "activity change, negative = inhibition": "inactive: -3.94% [at 2.29 µM]"}
{"smiles": "CCc1nnc(NC(=O)CSc2nnc(Cc3cccn3C)n2C)s1", "Potency": "inconclusive [inhibitor, partial curve]"}
{"smiles": "CCN(Cc1ccncc1)C(=O)[C@@H](CO)c1ccccc1", "Potency": "inactive"}
{"smiles": "CN(c1cccc(NC(=O)COc2ccccc2)c1)S(C)(=O)=O", "Potency": "inconclusive [inhibitor, partial curve]"}
{"smiles": "Cc1ccccc1Cn1ccc(NC(=O)c2onc(C)c2Cl)n1", "Potency": "inconclusive [inhibitor, partial curve]"}
{"smiles": "C=CCN1C(=O)C(O)(CC(=O)c2ccc(N)cc2)c2ccccc21", "note": "(configuration not stated)", "activity change, negative = inhibition": "inactive: 1.21%"}
{"smiles": "COc1ccc(-c2nnc(SCc3nnc(-c4ccccc4)o3)n2C)cc1OC", "Potency": "inconclusive [inhibitor, full curve]"}
{"smiles": "Cc1ccc(C=Nc2ccc(N(C)C)cc2)o1", "Potency": "active: 3.16 µM"}
{"smiles": "Nc1nc2ccccc2n1C(=O)CCc1ccccc1", "Potency": "inconclusive [inhibitor, partial curve]"}
{"smiles": "CCOC(=O)c1ccc(NC(=O)c2cc3ccccc3o2)cc1", "Potency": "inconclusive [inhibitor, single point]"}
{"smiles": "CC(C)COc1ccc(-c2nnn(CC(=O)N3CCCC3)n2)cc1", "Potency": "inconclusive [inhibitor, partial curve]"}
{"smiles": "CCOc1cc(C)c(Cl)cc1S(=O)(=O)n1nnc2ccccc21", "activity change, negative = inhibition": "inactive: 1.16%"}
{"smiles": "CCNC(=O)[C@@H]1O[C@@H](n2cnc3c(N)nc(NCCc4ccc(CCC(=O)O)cc4)nc32)[C@H](O)[C@@H]1O", "activity change, negative = inhibition": "inactive: -7.58%"}
{"smiles": "Fc1ccc2c(c1)[C@H]1OCC[C@H]1[C@@H](c1ccco1)N2", "Potency": "inconclusive [inhibitor, single point]"}
{"smiles": "Nc1cc2c(nc3c4ccccc4c(N)cc3[n+]2-c2cccc3ccccc23)c2ccccc12", "note": "(tested in a mixture with another compound)", "activity change, negative = inhibition": "inactive: -12.9% [at 11.4 µM]"}
{"smiles": "CCC1CCCCN1Cc1nc2c(c(=O)n(C)c(=O)n2C)n1CCC(C)C", "note": "(configuration not stated)", "Potency": "inconclusive [inhibitor, partial curve]"}
{"smiles": "CCOC(=O)N1CCN(C(=O)c2ccc3c(=O)n(Cc4ccccc4)c(=S)[nH]c3c2)CC1", "activity change, negative = inhibition": "inactive: 2.73%"}
{"smiles": "CCC(C)c1ccc2oc(-c3ccc(NC(=O)c4ncn[nH]4)cc3)nc2c1", "note": "(configuration not stated)", "Potency": "inconclusive [inhibitor, partial curve]"}
{"smiles": "CCCC(=O)N1CCc2cc(-c3nc(N)sc3C)ccc21", "Potency": "inconclusive [inhibitor, partial curve]"}
{"smiles": "CCn1c(SCCN2CCCCC2)nnc1-c1ccc(S(=O)(=O)N2CCOCC2)cc1", "Potency": "inconclusive [inhibitor, full curve]"}
{"smiles": "CCOC(=O)c1sc(-c2ccc(OC)cc2)cc1N", "Potency": "active: 12.6 µM"}
{"smiles": "CCOC(=O)c1cccc(NC(=O)c2cc3sccc3n2C)c1", "Potency": "inconclusive [inhibitor, single point]"}
{"smiles": "COc1cc(NC(=O)c2cc(OC)c(OC)c(OC)c2)c(OC)cc1NC(=O)CN1CCCCC1", "Potency": "inconclusive [inhibitor, partial curve]"}
{"smiles": "CCOC(=O)c1ccc(NC(=O)N2CCN(CCc3ccccc3)CC2)cc1", "Potency": "active: 25.1 µM"}
{"smiles": "CCOc1ccc2cc(C#N)c(SCC(=O)OC)nc2c1", "Potency": "inconclusive [inhibitor, single point]"}
{"smiles": "CC(C)c1cc(C(=O)Nc2cccnc2)no1", "Potency": "inconclusive [inhibitor, single point]"}
{"smiles": "Cc1cc(C)nc(Nc2ccc(N3CCCC3)cc2)n1", "Potency": "inconclusive [inhibitor, partial curve]"}
{"smiles": "Cc1ccc(CC2CC(=O)N(CCc3ccc4c(c3)OCO4)C2=O)cc1", "note": "(configuration not stated)", "activity change, negative = inhibition": "inactive: -0.798%"}
{"smiles": "CCSc1nnc(-c2ccc(OC)cc2)o1", "Potency": "inconclusive [inhibitor, single point]"}
{"smiles": "CCOc1ccc(Nc2nc(Cc3nnc(SCC(=O)O)o3)cs2)cc1", "Potency": "inconclusive [inhibitor, single point]"}
{"smiles": "Cc1c(C(=O)O)c(O)cc2c1C(=O)c1c(O)c([C@@H]3O[C@H](CO)[C@@H](O)[C@H](O)[C@@H]3O)c(O)c(O)c1C2=O", "activity change, negative = inhibition": "inactive: -4.92% [at 11.4 µM]"}
{"smiles": "COCCN(C(=O)CN1CCc2ccccc2C1)c1c(N)n(Cc2ccccc2)c(=O)[nH]c1=O", "Potency": "inconclusive [inhibitor, full curve]"}
{"smiles": "Cn1ncc(C#N)c1NC(=O)c1nn2cccnc2c1Cl", "activity change, negative = inhibition": "inactive: 0.161%"}
{"smiles": "CN(C)c1ccc(-c2cc(NCc3ccccc3)ncn2)cc1", "Potency": "inconclusive [inhibitor, single point]"}
{"smiles": "CCC1SC(=NC(=O)c2ccc(Cl)c(Cl)c2)NC1=O", "note": "(configuration not stated)", "Potency": "inconclusive [inhibitor, single point]"}
{"smiles": "O=C(OC1CCOC1=O)c1ccc(-c2nc3ccccc3s2)s1", "note": "(configuration not stated)", "Potency": "active: 2.51 µM"}
{"smiles": "CCCC(=O)Nc1ccc(NC(=O)c2ccccn2)cn1", "Potency": "active: 20 µM"}
{"smiles": "CCN(CC)C(=O)COc1ccc(-c2ccccc2)cc1", "Potency": "inconclusive [inhibitor, partial curve]"}
{"smiles": "c1ccc(-c2cn3c4c(sc3n2)CCCC4)cc1", "Potency": "active: 0.398 µM"}
